{"source": "paper PMC5700166", "note": "The entries are a selection whose mix differs from that of the whole data set. The list includes weakly bound sequences.", "data": [{"molecular_target": "T1, GST-Co-NF-kB (UniProt F1ARL5)", "T1 sequence": "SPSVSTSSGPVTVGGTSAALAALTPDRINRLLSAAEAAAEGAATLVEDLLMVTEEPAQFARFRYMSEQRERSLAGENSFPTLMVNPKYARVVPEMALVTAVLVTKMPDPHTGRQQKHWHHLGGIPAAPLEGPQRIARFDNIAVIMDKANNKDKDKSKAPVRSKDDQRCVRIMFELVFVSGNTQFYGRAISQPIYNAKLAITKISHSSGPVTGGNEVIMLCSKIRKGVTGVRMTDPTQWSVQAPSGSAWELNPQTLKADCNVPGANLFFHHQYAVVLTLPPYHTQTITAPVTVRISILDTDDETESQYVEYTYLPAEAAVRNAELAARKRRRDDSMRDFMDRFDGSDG", "test": "protein-binding microarray (PBM)", "details": "PBM: ~300 nM protein, 6 mM HEPES pH 7.8, 80 mM KCl, 0.5 mM EDTA, 0.5 mM EGTA, 6% glycerol, 35 ng/ul poly-dIdC, 1% milk, 1 h, room temperature; Ap Aiptasia and Nv Nematostella (sea anemones) / Co Capsaspora / Aq Amphimedon (sponge) / Dm Drosophila / Hu human; RHD is the Rel homology domain; high values mean tight binding; most listed sequences are background and not binding sites; double strand, one strand shown", "units": {"binding signal": "z-score"}, "values": [{"sequence": "CCGATTAACATCAACTTTCCCCCTGATGTTAATCGGGTCTTGATTCGCTTGACGCTGCTG", "binding signal": 9.36}, {"sequence": "CCGATTAACATCAGGGTGGGAAATGATGTTAATCGGGTCTTGATTCGCTTGACGCTGCTG", "binding signal": 3.37}, {"sequence": "CCGATTAACATCAGGGGATTGCATGATGTTAATCGGGTCTTGATTCGCTTGACGCTGCTG", "binding signal": 2.38}, {"sequence": "CCGATTAACATCAGGAGATCCCATGATGTTAATCGGGTCTTGATTCGCTTGACGCTGCTG", "binding signal": 0.376}, {"sequence": "CCGATTAACATCAGGGAGCCCCCTGATGTTAATCGGGTCTTGATTCGCTTGACGCTGCTG", "binding signal": 2.5}, {"sequence": "CCGATTAACATCAAGGAAAACCCTGATGTTAATCGGGTCTTGATTCGCTTGACGCTGCTG", "binding signal": 0.769}, {"sequence": "CCGATTAACATCAGATCTCCCCCTGATGTTAATCGGGTCTTGATTCGCTTGACGCTGCTG", "binding signal": 8.07}, {"sequence": "CCGATTAACATCAGGAAAGACCCTGATGTTAATCGGGTCTTGATTCGCTTGACGCTGCTG", "binding signal": -1.06}, {"sequence": "CCGATTAACATCAGGGTTTTCCATGATGTTAATCGGGTCTTGATTCGCTTGACGCTGCTG", "binding signal": -0.185}, {"sequence": "CCGATTAACATCACGGACACCCCTGATGTTAATCGGGTCTTGATTCGCTTGACGCTGCTG", "binding signal": 1.34}, {"sequence": "CCGATTAACATCACGGGGGAAAATGATGTTAATCGGGTCTTGATTCGCTTGACGCTGCTG", "binding signal": 11.7}, {"sequence": "CCGATTAACATCAGGAGGTCCCCTGATGTTAATCGGGTCTTGATTCGCTTGACGCTGCTG", "binding signal": 1.57}]}]}
